T1: mouse B7H4 on the cell surface (mouse, UniProt Q7TSP5 25-257)
T1 construct: whole, on cells; also called CHOK1/m B7H4
T1 sequence (looked up): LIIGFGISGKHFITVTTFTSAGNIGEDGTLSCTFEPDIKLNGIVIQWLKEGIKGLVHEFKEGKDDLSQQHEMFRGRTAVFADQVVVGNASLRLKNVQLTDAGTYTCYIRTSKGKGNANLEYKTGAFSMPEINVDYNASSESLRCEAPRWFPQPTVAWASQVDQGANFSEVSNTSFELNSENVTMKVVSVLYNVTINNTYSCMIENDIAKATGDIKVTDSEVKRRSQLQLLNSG

T2: human B7H4 on the cell surface (human, UniProt Q7Z7D3 25-282)
T2 construct: whole, on cells; also called CHOK1/hu B7H4; B7H4 on SK-BR-3
T2 sequence (looked up): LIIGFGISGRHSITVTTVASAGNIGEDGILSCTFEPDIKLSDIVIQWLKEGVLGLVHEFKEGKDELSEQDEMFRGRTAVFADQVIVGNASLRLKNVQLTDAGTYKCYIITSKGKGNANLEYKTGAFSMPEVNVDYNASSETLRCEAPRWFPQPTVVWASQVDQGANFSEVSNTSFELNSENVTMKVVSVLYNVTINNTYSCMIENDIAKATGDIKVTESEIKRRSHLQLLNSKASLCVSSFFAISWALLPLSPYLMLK

T3: cynomolgus monkey B7H4 on the cell surface (cynomolgus monkey, UniProt A0A2K5U6P5 25-282)
T3 construct: whole, on cells; also called CHOK1/cyno B7H4
T3 sequence: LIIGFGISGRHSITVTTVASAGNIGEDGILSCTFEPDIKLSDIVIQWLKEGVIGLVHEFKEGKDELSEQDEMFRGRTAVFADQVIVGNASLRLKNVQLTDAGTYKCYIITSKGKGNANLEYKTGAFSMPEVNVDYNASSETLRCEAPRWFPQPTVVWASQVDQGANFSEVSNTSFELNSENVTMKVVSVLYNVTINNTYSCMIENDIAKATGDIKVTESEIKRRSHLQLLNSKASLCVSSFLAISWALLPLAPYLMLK


Experiments:
[1] = molecular target: T1, mouse B7H4 on the cell surface; experiment: FACS, CHOK1/m B7H4 cells
Experimental: (§1) This example is intended to investigate the in vitro binding activity of anti-human B7H4 H2L2 monoclonal antibody to human/cynomolgus monkey/mouse B7H4. Antibody binding experiments at the cellular level were performed using CHOK1 cell line overexpressing human B7H4 (CHOK1/hu B7H4, Harbour BioMed), CHOK1 cell line overexpressing cynomolgus monkey B7H4 (CHOK1/cyno B7H4, Harbour BioMed), CHOK1 cell line overexpressing mouse B7H4 (CHOK1/m B7H4, Harbour BioMed) and SK-BR-3 cell line (ATCC® HTB-30) highly expressing human B7H4. Briefly, CHOK1/hu B7H4 cells, CHOK1/cyno B7H4 cells, CHOK1/m B7H4 cells or SK-BR-3 cells were digested and resuspended with PBS containing 2% BSA. The cell density was adjusted to 1×10⁶ cells/mL. The cells were seeded in a 96-well V-bottom plate (Corning, #3894) at 100 μL/well, followed by the addition of test antibodies diluted in a 3-fold concentration gradient of 2 times the final concentration, each at 100 μL/well. The cells were incubated at 4° C. for 2 h away from light. Thereafter, the cells in each well were rinsed twice with 100 μL of pre-cooled PBS containing 2% BSA, and centrifuged at 500 g at 4° C. for 5 min, and then the supernatant was discarded. Then 100 μL of a fluorescent secondary antibody (Alexa Fluor 488-conjugated AffiniPure Goat Anti-Human IgG, Fcγ Fragment Specific, Jackson, #109-545-098, 1:500 diluted) was added to each well. The plate was incubated away from light at 4° C. for 1 h. The cells in each well were washed twice with 100 μL of pre-cooled PBS containing 2% BSA, and centrifuged at 500 g at 4° C. for 5 minutes, and then the supernatant was discarded. Finally, the cells in each well were resuspended with 200 μL of pre-cooled PBS containing 2% BSA, and the fluorescence signal values were read using an ACEA Novocyte3000 flow cytometer.

[2] = molecular target: T2, human B7H4 on the cell surface; experiment: FACS, SK-BR-3 cells
Experimental: as §1

[3] = molecular target: T3, cynomolgus monkey B7H4 on the cell …; experiment: FACS, CHOK1/cyno B7H4 cells
Experimental: as §1

CD3 on human T cells = CD3 on human T cells (human, UniProt P07766; P04234; P09693); experiment: FACS on human T cells; EC50 printed as n.d., curve still rising at 100 nM
Sequence of CD3 on human T cells (P07766 23-207 limits assumed, chain 1 of 3): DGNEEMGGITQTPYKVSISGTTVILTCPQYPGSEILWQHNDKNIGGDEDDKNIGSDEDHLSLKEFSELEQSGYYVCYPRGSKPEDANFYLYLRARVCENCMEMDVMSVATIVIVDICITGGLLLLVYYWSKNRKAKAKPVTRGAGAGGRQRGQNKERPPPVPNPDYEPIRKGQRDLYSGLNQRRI
Sequence of CD3 on human T cells (P04234 22-171 limits assumed, chain 2 of 3, further chain): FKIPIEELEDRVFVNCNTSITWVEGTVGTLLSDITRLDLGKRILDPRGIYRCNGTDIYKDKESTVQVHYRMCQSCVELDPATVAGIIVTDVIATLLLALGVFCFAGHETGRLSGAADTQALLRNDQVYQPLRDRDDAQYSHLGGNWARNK
Sequence of CD3 on human T cells (P09693 23-182 limits assumed, chain 3 of 3, further chain): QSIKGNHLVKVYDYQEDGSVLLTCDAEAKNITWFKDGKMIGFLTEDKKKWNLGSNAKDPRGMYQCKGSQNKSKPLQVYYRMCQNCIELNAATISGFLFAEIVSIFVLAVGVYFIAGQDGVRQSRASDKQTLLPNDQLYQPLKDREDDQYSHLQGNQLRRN
Experimental: SK-BR-3 cells were digested. T cells were isolated using the human T cell isolation kit (Miltenyi, #130-096-535) as described in the method of the instruction, and resuspended with PBS containing 2% BSA. The cell density was adjusted to 1×10⁶ cells/mL. The cells were seeded in a 96-well V-bottom plate (Corning, #3894) at 100 μL/well, followed by the addition of test antibodies diluted in a 3-fold gradient at a concentration that was 2 times the final concentration, each at 100 μL/well. The cells were incubated at 4° C. for 2 h away from light. Thereafter, the cells in each well were rinsed twice with 100 μL of pre-cooled PBS containing 2% BSA, and centrifuged at 500 g at 4° C. for 5 min, and then the supernatant was discarded. Then each well was added with 100 μL of fluorescent secondary antibody (Alexa Fluor 488-conjugated AffiniPure Goat Anti-Human IgG, Fcγ Fragment Specific, Jackson, #109-545-098, diluted in a 1:500 ratio), and the plate was incubated away from light at 4° C. for 1 h. The cells in each well were washed twice with 100 μL of pre-cooled PBS containing 2% BSA, and centrifuged at 500 g at 4° C. for 5 minutes, and then the supernatant was discarded. Finally, the cells in each well were resuspended with 200 μL of pre-cooled PBS containing 2% BSA, and the fluorescence signal values were read using an ACEA Novocyte3000 flow cytometer.

Binder | EC50 [1] | Maximum MFI [1] | EC50 [2] | Maximum MFI [2] | EC50 [3] | Maximum MFI [3] | Maximum MFI (CD3 on human T cells)
PR002410 (antibody, human IgG1, kappa, PTM variant of PR002037 (L: C87Y), human IgG1) heavy: QVQLVQSGAEVKKPGSSMRVSCKASEDTFSSYAISWVRQAPGQGLEWMGGTAPIFGTTNYAQKFQGRVTITADKSTSTAYMELSSLRSEDTAVYYCARGGPYFDYWGQGTLVTVSS[human IgG1 constant region not written out] light: EIVMTQSPASLSVSPGERATLSCRASQSVSSNLAWYQQKPGQAPRLLIYGASTRATGIPARVSGGGSGTEFTLTISSLQSEDFAVYYCQQYKNWPFTFGPGTKLEIKRTVAAPSVFIFPPSDEQLKSGTASVVCLLNNFYPREAKVQWKVDNALQSGNSQESVTEQDSKDSTYSLSSTLTLSKADYEKHKVYACEVTHQGLSSPVTKSFNRGEC | 2.38 nM | 1.55e+06 MFI | 1.87 nM | 245000 MFI | 2.08 nM | 1.86e+06 MFI | –
PR003001 (bispecific antibody, human IgG1, kappa, L234A L235A, B7H4 x CD3, 2+1 asymmetric structure (structure 7): CD3 scFv(VL-VH) from PR000627, two B7H4 Fabs from PR001476) QVQLVESGGGVVQPGRSLRLSCAASGFTFRSFGMHWVRQAPGKGLEWVAVISYDGSNEYYADSVKGRFIISRDNSKDTLYLQMNSLRAGDTAVYYCAKGGGLRWYFAYWGQGTLVTVSSASTKGPSVFPLAPSSKSTSGGTAALGCLVKDYFPEPVTVSWNSGALTSGVHTFPAVLQSSGLYSLSSVVTVPSSSLGTQTYICNVNHKPSNTKVDKKVEPKSCGGGGSQAVVTQEPSLTVSPGGTVTLTCRSSTGAVTTSNYANWVQQKPGQAPRGLIGGTNKRAPWTPARFSGSLLGDKAALTLLGAQPEDEAEYFCALWYSNLWVFGGGTKLTVLGGGQSGQGGSGGGGSEVQLVESGGGLVQPGGSLKLSCAASGFTFNTYAMNWVRQASGKGLEWVGRIRSKYNNYATYYADSVKDRFTISRDDSKSTLYLQMNSLKTEDTAVYYCVRHGNFGNSYVSWFAYWGQGTLVTVSSASEPKSSDKTHTCPPCPAPEAAGGPSVFLFPPKPKDTLMISRTPEVTCVVVDVSHEDPEVKFNWYVDGVEVHNAKTKPREEQYNSTYRVVSVLTVLHQDWLNGKEYKCKVSNKALGAPIEKTISKAKGQPREPQVYTLPPCREEMTKNQVSLWCLVKGFYPSDIAVEWESNGQPENNYKTTPPVLDSDGSFFLYSKLTVDKSRWQQGNVFSCSVMHEALHNHYTQKSLSLSPGK heavy: QVQLVESGGGVVQPGRSLRLSCAASGFTFRSFGMHWVRQAPGKGLEWVAVISYDGSNEYYADSVKGRFIISRDNSKDTLYLQMNSLRAGDTAVYYCAKGGGLRWYFAYWGQGTLVTVSSASTKGPSVFPLAPSSKSTSGGTAALGCLVKDYFPEPVTVSWNSGALTSGVHTFPAVLQSSGLYSLSSVVTVPSSSLGTQTYICNVNHKPSNTKVDKKVEPKSCDKTHTCPPCPAPEAAGGPSVFLFPPKPKDTLMISRTPEVTCVVVDVSHEDPEVKFNWYVDGVEVHNAKTKPREEQYNSTYRVVSVLTVLHQDWLNGKEYKCKVSNKALGAPIEKTISKAKGQPREPQVCTLPPSREEMTKNQVSLSCAVKGFYPSDIAVEWESNGQPENNYKTTPPVLDSDGSFFLVSKLTVDKSRWQQGNVFSCSVMHEALHNHYTQKSLSLSPGK light: EIVMTQSPATLSVSPGERATLSCRASQSISSNLGWYQQKPGQAPRLLIYGASTRATGIPARFSGSGSGTEFTLTISSLQSEDFAVYYCQQYNSWPPLTFGGGTKVEIKRTVAAPSVFIFPPSDEQLKSGTASVVCLLNNFYPREAKVQWKVDNALQSGNSQESVTEQDSKDSTYSLSSTLTLSKADYEKHKVYACEVTHQGLSSPVTKSFNRGEC | – | – | – | – | – | – | 44400
PR003008 (bispecific antibody, human IgG1, kappa, L234A L235A, B7H4 x CD3, 2+1 asymmetric structure (structure 9): CD3 scFv(VL-VH) from PR000627, two B7H4 Fabs from PR001476) QVQLVESGGGVVQPGRSLRLSCAASGFTFRSFGMHWVRQAPGKGLEWVAVISYDGSNEYYADSVKGRFIISRDNSKDTLYLQMNSLRAGDTAVYYCAKGGGLRWYFAYWGQGTLVTVSSASTKGPSVFPLAPSSKSTSGGTAALGCLVKDYFPEPVTVSWNSGALTSGVHTFPAVLQSSGLYSLSSVVTVPSSSLGTQTYICNVNHKPSNTKVDKKVEPKSCDKTHTCPPCPAPEAAGGPSVFLFPPKPKDTLMISRTPEVTCVVVDVSHEDPEVKFNWYVDGVEVHNAKTKPREEQYNSTYRVVSVLTVLHQDWLNGKEYKCKVSNKALGAPIEKTISKAKGQPREPQVYTLPPCREEMTKNQVSLWCLVKGFYPSDIAVEWESNGQPENNYKTTPPVLDSDGSFFLYSKLTVDKSRWQQGNVFSCSVMHEALHNHYTQKSLSLSPGGGGGSQAVVTQEPSLTVSPGGTVTLTCRSSTGAVTTSNYANWVQQKPGQAPRGLIGGTNKRAPWTPARFSGSLLGDKAALTLLGAQPEDEAEYFCALWYSNLWVFGGGTKLTVLGGGQSGQGGSGGGGSEVQLVESGGGLVQPGGSLKLSCAASGFTFNTYAMNWVRQASGKGLEWVGRIRSKYNNYATYYADSVKDRFTISRDDSKSTLYLQMNSLKTEDTAVYYCVRHGNFGNSYVSWFAYWGQGTLVTVSS heavy: QVQLVESGGGVVQPGRSLRLSCAASGFTFRSFGMHWVRQAPGKGLEWVAVISYDGSNEYYADSVKGRFIISRDNSKDTLYLQMNSLRAGDTAVYYCAKGGGLRWYFAYWGQGTLVTVSSASTKGPSVFPLAPSSKSTSGGTAALGCLVKDYFPEPVTVSWNSGALTSGVHTFPAVLQSSGLYSLSSVVTVPSSSLGTQTYICNVNHKPSNTKVDKKVEPKSCDKTHTCPPCPAPEAAGGPSVFLFPPKPKDTLMISRTPEVTCVVVDVSHEDPEVKFNWYVDGVEVHNAKTKPREEQYNSTYRVVSVLTVLHQDWLNGKEYKCKVSNKALGAPIEKTISKAKGQPREPQVCTLPPSREEMTKNQVSLSCAVKGFYPSDIAVEWESNGQPENNYKTTPPVLDSDGSFFLVSKLTVDKSRWQQGNVFSCSVMHEALHNHYTQKSLSLSPGK light: EIVMTQSPATLSVSPGERATLSCRASQSISSNLGWYQQKPGQAPRLLIYGASTRATGIPARFSGSGSGTEFTLTISSLQSEDFAVYYCQQYNSWPPLTFGGGTKVEIKRTVAAPSVFIFPPSDEQLKSGTASVVCLLNNFYPREAKVQWKVDNALQSGNSQESVTEQDSKDSTYSLSSTLTLSKADYEKHKVYACEVTHQGLSSPVTKSFNRGEC | – | – | – | – | – | – | 39400

Reference: US20230312722A1 (NONA BIOSCIENCES SUZHOU, published 2023)
